Out of some 360,000 compounds screened, about 7,500 (2.1%) were called active. Inconclusive means that the source gave no clear call. Such entries were picked first, then a sample of the others. The call rests on the fitted dose curve; in most records, active means well fitted cell-killing curve with a large enough effect; inconclusive means small, poorly fitted or top-dose-only effect, or effect the other way, or another doubt; inactive means no such curve, though single readings can be large or run the other way. No potency is given beside an inconclusive call; the fits are too rough.
assay: qHTS for induction of synthetic lethality in tumor cells producing 2HG: qHTS for the HT-1080-IDH1KD cell line; conditions: HT-1080 IDH1 knockdown viability, ATP luminescence, 48 h; activity, negative = toxicity: at 46.1 µM (top of the series) unless noted;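 on activity, negative = toxicity: 0% = DMSO wells and -100% = cell-free medium wells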
How it was run: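 Assay cells: HT-1080 with IDH1 knockdown, 750 per well, RPMI/5% FBS. Exposure: 48 h at 37 °C following 2 h pre-incubation. Read: CellTiter-Glo luminescence; fitted concentration-response, curve class assigned.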
Potency means the concentration at half of the fitted maximal effect; tags describe the fitted curve by direction and shape.

| Structure (SMILES) | Potency | activity, negative = toxicity |
| --- | --- | --- |
| O=Nc1c(-c2ccccc2)n(O)[n+]([O-])c1-c1ccccc1 | inactive |  |
| CC(=O)OCC1(C)CN(c2ccccc2)N(C(C)=O)C1=O (stereo not drawn) | inconclusive [cytotoxic, single point] |  |
| CC(=O)Nc1ccc(CN(C)CC2CCCN(CCc3cccc(C(F)(F)F)c3)C2)cc1 (stereo not drawn) | active: 20.6 µM |  |
| O=C(Cc1cccc2ccccc12)NNC(=O)Nc1ccc(Cl)cc1 | inconclusive [cytotoxic, single point] |  |
| COc1ccc(OC)c(S(=O)(=O)Nc2ccc(C(C)=O)cc2)c1 | inconclusive [cytotoxic, single point] |  |
| Oc1ccccc1-c1cc(-c2ccc(F)cc2)n[nH]1 | active: 18.4 µM |  |
| Cc1ccccc1Cn1ccc(NC(=O)c2onc(C)c2Cl)n1 | inconclusive [cytotoxic, single point] |  |
| Cc1nn(Cc2ccccc2Cl)c(C)c1C(=O)NC1=NCCS1 | inactive |  |
| O=C(CSc1nc(Cc2ccccc2)nc2ccccc12)Nc1nc2c(s1)CCCC2 | inconclusive [cytotoxic, single point] |  |
| Cc1ccc(-c2cc(-c3ccc(F)cc3)n[nH]2)c(O)c1 | active: 18.4 µM |  |
| CC(=O)Nc1ccc(C2=CC(=O)C[C@H](c3ccc(Cl)cc3)C2)cc1 | inactive |  |
| CC[n+]1ccccc1/C=C1\Sc2ccc(C)cc2N1C | active: 9.2 µM |  |
| CCOc1ccc2c(c1)C(C)=CC(C)(C)N2S(=O)(=O)c1ccc(C)cc1 | active: 1.84 µM |  |
| Cc1ccc(-c2nc3cc(C)ccc3o2)cc1 | inactive |  |
| CCOC(=O)C(=NC1CCCCC1)NNc1cccc(C(F)(F)F)c1 | inconclusive [cytotoxic, single point] |  |
| CCN1CCN(CCCNC(=O)C2CCCN(c3nc4c(C)cc(C)cc4s3)C2)CC1 (stereo not drawn) | inconclusive [cytotoxic, single point] |  |
| CC(=O)Nc1cccc(Oc2ncnc3scc(-c4ccc(C(C)C)cc4)c23)c1 | inconclusive [cytotoxic, partial curve] |  |
| CN(C)C1C(=O)c2ccccc2C1=O |  | inconclusive: 33.5% |
| Cc1ccc2nc(C)c(C(=O)N/N=C/c3ccc(N4CCOCC4)cc3)cc2c1 | inconclusive [cytotoxic, single point] |  |
| CC(C)NC(=O)NC(=O)CSc1nnc(COc2ccccc2F)n1C(C)C1CC2CCC1C2 (stereo not drawn) | inconclusive [cytotoxic, single point] |  |
| N#CC1c2ccccc2-c2ccccc2N1C(=O)c1ccccc1 (stereo not drawn) | active: 9.2 µM |  |
| COc1ccccc1N1CCN(CCCCOc2cccc3ccccc23)CC1 | active: 16.4 µM |  |
| CCn1cc(C(=O)NCCc2ccccc2)c(=O)c2cc(F)c(N3CCN(C)CC3)cc21 |  | inconclusive: -35.9% [cytotoxic] |
| Cn1nc(C(C)(C)C)cc1C(=O)NNC(=O)c1cccc(Cl)c1 |  | inconclusive: -37.7% [cytotoxic] |
| COc1cc2c(c(OC)c1CC=C(C)C)C[C@H](c1ccc(O)cc1O)CO2 | inactive |  |

| Structure (SMILES) | Potency | activity, negative = toxicity |
| --- | --- | --- |
| CC(=O)c1c(O)cc(O)c(C(C)=O)c1O | active: 18.4 µM |  |
| COc1ccc(Cl)cc1C(=O)NNC(=O)c1cccnc1 | inconclusive [rising, single point] |  |
| NC(=O)COC(=O)/C=C/c1ccc2ccccc2n1 | inconclusive [cytotoxic, single point] |  |
| CCCC(=O)NC(c1ccccc1Cl)c1ccc2cccnc2c1O (stereo not drawn) | inconclusive [cytotoxic, full curve] |  |
| Cc1ccc2nc(C3CCCCC3)c(Cc3cccc(Cl)c3)n2c1 | inconclusive [cytotoxic, single point] |  |
| CCOC(=O)c1nnc(-c2ccccc2)nc1Sc1c(Cl)cccc1Cl | active: 20.6 µM |  |
| O=C(Nc1ccc(O)c(-c2nc3ccccc3o2)c1)C1(c2ccc(Br)cc2)CCCC1 | inactive |  |
| Cc1ccc(C2(CCNC(C)c3cccs3)CCOC(C(C)C)C2)cc1 (stereo not drawn) | inconclusive [cytotoxic, single point] |  |
| CC(=O)NCCNC(=O)c1ccc(Cn2c(=O)[nH]c3ccsc3c2=O)cc1 | inactive |  |
| COc1ccc(OCc2cc(C(=O)NC(C)Cc3ccccn3)no2)c(Cl)c1 (stereo not drawn) | inactive |  |
| Cc1c(C(=O)NCc2ccc(C(F)(F)F)cc2)sc(=O)n1Cc1cccc(F)c1 | inconclusive [cytotoxic, single point] |  |
| CCCC(=O)Nc1nn(CC(C)C)c2nc3cc(C)ccc3cc12 | inactive |  |
| COc1ccc2[nH]c3c(c2c1)CCN1C(=O)C(CC(=O)NCCN2CCOCC2)C[C@H](C(=O)N(C(C)C)C(C)C)[C@@]31C (stereo partly drawn) | inactive |  |
| O=C(c1[nH]ncc1-c1cccc(Br)c1)C1CO1 (stereo not drawn) | inconclusive [cytotoxic, single point] |  |
| O=C(N[C@H]1C/C=C\C[C@H](CC(=O)N(CCO)Cc2ccccc2)C(=O)N[C@@H](c2ccccc2)COC1=O)OCC1c2ccccc2-c2ccccc21 | inactive |  |
| CCCn1c2ccccc2c2cnn(CC(=O)NCCCN3CCCC(C)C3)c(=O)c21 (stereo not drawn) | inconclusive [cytotoxic, partial curve] |  |
| COc1ccc(OC)c(NC(=O)c2ccc(NC3=NC4CS(=O)(=O)CC4S3)cc2)c1 (stereo not drawn) | inactive |  |
| CC(C)CCN1CC(C(=O)NC(C)C)CC1=O (stereo not drawn) | inconclusive [rising, single point] |  |
| O=C(Nc1ccccc1-c1ccccc1)C12CC3CC(CC(C3)C1)C2 | inconclusive [cytotoxic, single point] |  |
| CCOC(=O)c1sc(NC(=O)c2cccc(S(=O)(=O)N3CCN(C)CC3)c2)cc1C | inconclusive [cytotoxic, single point] |  |
| COc1ccc(-c2nc3ccc(C)cn3c2Cc2ccccc2)cc1OC | inconclusive [cytotoxic, single point] |  |
| Cc1ccc(-n2c(Cl)c(Cl)nc(Cl)c2=O)cc1 | active: 2.91 µM |  |
| CC(=O)Nc1ccc(S(=O)(=O)NNc2ccc([N+](=O)[O-])cc2)cc1 | active: 16.4 µM |  |
| CSc1cccc(CN2CCC(CO)(Cc3cccc(C(F)(F)F)c3)CC2)c1 | active: 16.4 µM |  |
| Cc1cccc(C)c1Cn1c(C)c(C(=O)NCc2ccc(C#N)cc2)sc1=O | inconclusive [cytotoxic, single point] |  |

| Structure (SMILES) | Potency | activity, negative = toxicity |
| --- | --- | --- |
| CCOC(=O)c1c(NC(=O)c2cccc(N3C(=O)CCC3=O)c2)sc2c1CCN(CC)C2 | inactive |  |
| CC1=NN(C(=O)Cc2ccccc2)C(O)(c2cccnc2)C1 (stereo not drawn) | inconclusive [cytotoxic, single point] |  |
| Cc1ccc(-c2cc(C(=O)NCCCN3CCOCC3)c3ccccc3n2)cc1 | inactive |  |
| COc1ccc(-c2cc(C(=O)Nc3ccc(C(N)=O)cc3)c3ccccc3n2)cc1OC | inconclusive [cytotoxic, single point] |  |
| CC[C@H](CO)Nc1nc(Nc2cccc(Cl)c2)c2ncn(C(C)C)c2n1 | inconclusive [cytotoxic, single point] |  |
| CC(=O)c1ccc(OCCCC(=O)OCC(=O)N2CCN(S(=O)(=O)c3ccc(C)cc3C)CC2)cc1 | inactive |  |
| COCCCNC(=S)N1CCN(c2nc(-c3ccc(Cl)cc3)cs2)CC1 | inactive |  |
| O=C(Nc1ccc(N2CCCCC2)c(Cl)c1)c1ccc2c(c1)OCCO2 | inconclusive [cytotoxic, single point] |  |
| CCCCCCCCN1C(=O)[C@H](CC(=O)N2CCN(C(=O)c3ccco3)CC2)C[C@@]2(C(=O)OC)CC(C)(C)CC=C12 | inconclusive [cytotoxic, single point] |  |
| O=C(Nc1ccc(N2CCOCC2)cc1)C1CCN(S(=O)(=O)c2cccc(C(F)(F)F)c2)CC1 | inactive |  |
| Cc1ccc(NC(=O)CCc2ccc(S(=O)(=O)N3CCOCC3)cc2)c(C)c1 | inactive |  |
| COc1cccc(-c2cc(C(=O)Nc3nc4ccccc4s3)c3ccccc3n2)c1 | inconclusive [cytotoxic, single point] |  |
| CCOC(=O)c1c(NC(=O)Cn2nnc3ccccc32)sc2c1CCC(C)C2 (stereo not drawn) |  | inactive: -3.55% [at 9.24 µM] |
| COC(=O)[C@]12CCCCC=C1N(CCC1=CCCCC1)C(=O)[C@H](CC(=O)NCCC(C)C)C2 | inconclusive [cytotoxic, single point] |  |
| CCC1CCCCN1CCCNC(=O)c1ccc2nc(N3CCC(C)CC3)sc2c1 (stereo not drawn) | inconclusive [cytotoxic, single point] |  |
| CN(c1ccccc1)C1CCCCC1NS(=O)(=O)c1ccc(Cl)cc1 (stereo not drawn) | inconclusive [cytotoxic, single point] |  |
| COc1ccc(NC(=O)C(=O)NCC(c2ccco2)N2CCc3ccccc32)cc1 (stereo not drawn) | inconclusive [cytotoxic, partial curve, poor fit] |  |
| COc1ccc2sc(N(CCCN(C)C)C(=O)c3ccc(C(=O)c4ccccc4)cc3)nc2c1 | inconclusive [cytotoxic, single point] |  |
| COc1cc(OC)c2c(-c3cccc(-c4cccc(N)c4)c3)cc(=O)oc2c1 | active: 5.17 µM |  |
| CC(C)(C)c1ccc(C(=O)N2CCN(CCNC(=O)C(=O)NCc3ccc(Cl)cc3)CC2)cc1 | inconclusive [cytotoxic, partial curve] |  |
| Cc1nc2ccc(NS(=O)(=O)c3c(F)cccc3F)cc2s1 | inactive |  |
| CC(C)NC(=S)N/N=C/c1cccnc1 | inactive |  |
| COc1cc(OC)c(C2=NOC(C(=O)NCc3cccnc3)C2)cc1Cl (stereo not drawn) | inconclusive [cytotoxic, single point] |  |

— PubChem BioAssay AID686971 (National Center for Advancing Translational Sciences (NCATS), 2013)
